Source: paper PMC3493068
No constants are given. Whether binding was seen depends on the method and setting. Binding seen in cells or lysates may run through a third protein. Some binding calls cover weakened binding; strength is not graded here. Tags and fused reporters may be left off the sequences shown.

Key:
[1] = biological target: wild-type dysferlin C2A-GST fusion protein (aa 1-129 of human dysferlin) (human) (UniProt O75923); assay: condition: only without DTT or NEM (MG53 dimers), at free Ca2+ lower or higher than 10 μM; pull-down; C2A-GST fusion on glutathione Sepharose 4B; COS-7 lysate with FLAG-MG53 without DTT or NEM, cross-linked with glutaraldehyde (MG53 oligomers including dimers); absence of Ca2+ or free Ca2+ lower or higher than 10 uM; 2 hr at 4°C; only the target purified
[2] = biological target: wild-type dysferlin C2A-GST fusion protein (aa 1-129 of human dysferlin) (human) (UniProt O75923); assay: pull-down; C2A-GST fusion on glutathione Sepharose 4B; COS-7 lysate with FLAG-MG53 supplemented with 5 mM DTT and cross-linked with glutaraldehyde (MG53 monomers); with or without Ca2+; 2 hr at 4°C; only the target purified
[3] = biological target: c-myc-tagged full-length human dysferlin (human) (UniProt O75923); assay: co-IP; COS-7 cells co-transfected with FLAG-MG53 and c-myc-dysferlin constructs, lysed 48 h later in 20 mM Tris-HCl pH 7.5, 150 mM NaCl, 1% NP-40 without CaCl2 and EGTA; IP with anti-FLAG (M2) or anti-c-myc (9E10), immunoblot
[4] = biological target: T1, c-myc-tagged human dysferlin deletion mutant aa 1081-2080 (without the C2A domain) (human) (UniProt O75923); assay: as above
T1 sequence: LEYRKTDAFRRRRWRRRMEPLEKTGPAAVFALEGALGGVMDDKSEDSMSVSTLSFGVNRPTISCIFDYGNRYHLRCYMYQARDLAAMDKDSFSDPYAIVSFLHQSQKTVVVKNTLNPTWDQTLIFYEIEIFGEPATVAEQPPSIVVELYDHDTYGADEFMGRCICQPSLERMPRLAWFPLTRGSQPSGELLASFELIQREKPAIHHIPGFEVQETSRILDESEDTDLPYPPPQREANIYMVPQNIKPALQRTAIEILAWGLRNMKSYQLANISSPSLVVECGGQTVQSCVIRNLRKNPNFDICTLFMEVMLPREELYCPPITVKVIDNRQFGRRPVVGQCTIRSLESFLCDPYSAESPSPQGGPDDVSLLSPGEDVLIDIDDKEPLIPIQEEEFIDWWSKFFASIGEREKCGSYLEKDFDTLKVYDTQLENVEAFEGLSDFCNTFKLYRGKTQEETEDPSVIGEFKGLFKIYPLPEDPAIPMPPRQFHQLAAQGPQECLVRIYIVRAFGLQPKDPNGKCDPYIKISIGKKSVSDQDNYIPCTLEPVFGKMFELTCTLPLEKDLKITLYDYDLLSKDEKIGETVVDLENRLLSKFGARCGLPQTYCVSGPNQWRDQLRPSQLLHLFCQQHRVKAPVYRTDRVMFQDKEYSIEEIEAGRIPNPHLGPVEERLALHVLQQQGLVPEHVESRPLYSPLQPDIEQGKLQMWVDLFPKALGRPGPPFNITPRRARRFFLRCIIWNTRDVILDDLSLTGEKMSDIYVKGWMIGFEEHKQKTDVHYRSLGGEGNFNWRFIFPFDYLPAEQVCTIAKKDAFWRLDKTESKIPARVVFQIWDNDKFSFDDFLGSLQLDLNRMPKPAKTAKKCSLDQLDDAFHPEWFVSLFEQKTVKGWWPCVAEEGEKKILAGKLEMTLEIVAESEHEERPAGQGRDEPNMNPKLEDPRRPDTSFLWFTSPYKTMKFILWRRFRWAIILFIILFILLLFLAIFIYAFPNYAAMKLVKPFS

[5] = biological target: c-myc-tagged human dysferlin deletion mutant aa 130-2080 (without the C2A domain) (human) (UniProt O75923); assay: as above
[6] = biological target: W52R dysferlin C2A-GST fusion protein (aa 1-129 of human dysferlin) (human) (UniProt O75923); assay: condition: only without NEM (MG53 dimers), in the presence of Ca2+; pull-down; C2A-GST fusion on glutathione Sepharose 4B; COS-7 lysate with FLAG-MG53 without DTT or NEM, cross-linked with glutaraldehyde (MG53 oligomers including dimers); free Ca2+ of 10 uM (printed 10 mM in the results); 2 hr at 4°C; only the target purified
[7] = biological target: T2, FLAG-tagged full-length human MG53 (human) (UniProt Q6ZMU5); assay: cross-linking; COS-7 lysate with FLAG-MG53, with 5 mM DTT, 2 mM glutaraldehyde 5 min at room temperature, anti-FLAG immunoblot
T2 sequence: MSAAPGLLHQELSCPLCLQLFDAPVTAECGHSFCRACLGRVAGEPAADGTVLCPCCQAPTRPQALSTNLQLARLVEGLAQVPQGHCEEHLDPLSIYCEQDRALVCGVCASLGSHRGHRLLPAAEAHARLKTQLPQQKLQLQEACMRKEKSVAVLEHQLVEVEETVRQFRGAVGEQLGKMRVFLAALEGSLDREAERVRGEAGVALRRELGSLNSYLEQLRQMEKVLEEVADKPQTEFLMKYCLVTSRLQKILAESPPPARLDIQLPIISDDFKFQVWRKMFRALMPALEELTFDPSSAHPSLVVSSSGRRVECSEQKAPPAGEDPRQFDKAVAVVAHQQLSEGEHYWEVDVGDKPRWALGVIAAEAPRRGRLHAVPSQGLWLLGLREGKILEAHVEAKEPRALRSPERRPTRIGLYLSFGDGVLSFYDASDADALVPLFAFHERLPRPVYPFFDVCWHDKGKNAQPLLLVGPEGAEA

[8] = biological target: V67D dysferlin C2A-GST fusion protein (aa 1-129 of human dysferlin) (human) (UniProt O75923); assay: pull-down; C2A-GST fusion on glutathione Sepharose 4B; COS-7 lysate with FLAG-MG53 without DTT or NEM, cross-linked with glutaraldehyde (MG53 oligomers including dimers); absence of Ca2+ or free Ca2+ lower or higher than 10 uM; 2 hr at 4°C; only the target purified

binding [1]: no binding | binding [3]: binds | binding [4]: no binding | binding [5]: no binding | binding [6]: no binding | binding [7]: no binding (condition: with 5 mM DTT) | binding [8]: binds
B1: FLAG-tagged full-length human MG53 (protein, UniProt Q6ZMU5 1-477)
chain: T2 sequence
binding [2]: no binding (condition: with 5 mM DTT (MG53 monomers))
